# Screen size: about 150,000 compounds; about 540 (0.36%) showed an effect of 50% or more. This is one part of the list.
# Test system: Plasmodium falciparum
# Test: Primary screen in NF54 nanoGlo assay, in single point, at 2uM, 72h; a lower Z score goes with more inhibition
# Type: functional, Erythrocyte
# Conditions: timepoint 72 hour
SMILES,% Inhibition,Z score
Oc1cccc(CN2CCC(NC[C@]3(O)CCCN4CCCC[C@@H]43)CC2)c1,-5%,0.96
CCN1CCN(C(=O)c2ccc(N3CCC(N(C)Cc4nc5cc(C)c(C)cc5[nH]4)CC3)cc2)CC1,2%,-0.44
CN1CCC(N2CCC(NC(=O)N3CCOc4ccccc4C3)CC2)CC1,1%,-0.17
CC(C)(O)CN1CCc2c(cccc2NCc2ccc3occc3c2)C1,4%,-0.62
O=C1CO[C@]2(CCN(C(=O)c3cncc(Cl)c3)C2)CN1,9%,-1.84
c1cc2c(NC[C@@H](c3ccsc3)N3CCOCC3)ncnc2cn1,-9%,1.44
COc1ccc2ncc(Cl)c(NC[C@H]3CC(=O)N(C4CC4)C3)c2c1,-11%,1.65
Cc1nn(C)c(C)c1C(=O)N1CCC(N2CCC(Oc3ncc(C(F)(F)F)cc3Cl)CC2)CC1,2%,-0.35
Cc1cc(N2CCC(NC3CCCC3Cc3ccc(F)cc3)CC2)nc(N)n1 (configuration not stated),96%,-14.52
O=C(Cn1nc2ccccc2c1O)NC[C@H](O)CN1CCCCCC1,-8%,1.33
CCN1C[C@@H](n2cnc(-c3ccccc3)c2-c2cnn3cccnc23)CC1=O,2%,-0.28
CN1CCN(CCNC(CC2CCCN2C(=O)OC(C)(C)C)C2CC2)CC1(C)C (configuration not stated),3%,-0.57
Cc1nn(C)c(OCC(F)(F)F)c1CNC1CC(C)(C)NC(C)(C)C1,-7%,1.17
COCCN1CCC(CN(C)C(=O)c2ccc(-c3cncc(N)c3)cc2)CC1,2%,-0.4
COc1ccc(-c2ccncc2)cc1CNC[C@H]1CC(=O)N(C2CC2)C1,3%,-0.73
O=C(NCc1ccncc1O[C@H]1CCNC1)c1cc(F)cc2[nH]cnc12,19%,-2.96
COc1ccc2nc(C(=O)Nc3nc(-c4ccc([C@H](C)NC(C)=O)cc4)cs3)ccc2c1,-10%,1.49
COC(=O)N1CCC(NCCNc2ccc(C(F)(F)F)cn2)CC1,0%,0.07
COc1cc(C(=O)N2CCN(C)[C@H](c3nc(C)no3)C2)ncn1,-7%,1.61
COc1nccc(-c2nc3cccc(Cl)c3[nH]2)c1F,-8%,1.69
Fc1ccccc1Nc1nc(-c2ccccc2)c(-c2ccccc2)s1,0%,-0.06

SMILES,% Inhibition,Z score
CN1CCC(CN2CCN(C(=O)c3cnoc3-c3ccccc3)CC2)CC1,-4%,0.64
CC1(C)CC(Nc2nc3cc(F)ccc3o2)CC(C)(C)N1,-1%,0.1
Nc1nc(NCCN2CCCC[C@@H]2CO)c2cc(C(=O)O)ccc2n1,-8%,1.48
O[C@@H]1C[C@H](O)CN(c2ncc(Cl)c(Nc3ccc(F)cc3)n2)C1,-2%,0.34
C[C@]1(c2nc(-c3c[nH]c4ncc(Br)cc34)no2)CCN(C(=O)OCc2ccccc2)C1,0%,0.07
O=C(CN1CCCN(CC2CCCCC2)CC1)NCc1ccc(OC(F)F)cc1,-3%,0.56
Cc1c(C(=O)N2CC(CO)C(CN3CCCCCC3)C2)[nH]c2ccccc12 (configuration not stated),-8%,1.39
CN1CCC(NC(=O)c2cccc(-c3ccc(F)c(C#N)c3)c2)CC1,-4%,0.71
CC(C)(C)c1nccc(Nc2ccc3[nH]ncc3c2)n1,-10%,1.47
COCCN1CCC(CNC(=O)NC2CCN(C3CCCCC3)CC2)CC1,4%,-0.74
O=C(O)CCN1CCN(CC2CCCCC2)C2CS(=O)(=O)CC21 (configuration not stated),-9%,1.54
CC(C)(O)c1cncc(-c2ccc(-c3ccn[nH]3)cc2)c1,-12%,2.68
c1csc(CN2CCC[C@H](Nc3nccc(-c4ccncc4)n3)C2)c1,0%,-0.03
COc1ccc(C(=O)C(c2c(C)[nH]c3ccccc23)c2c(C)[nH]c3ccccc23)cc1,-9%,1.38
OC1CCN(c2ccc(Nc3cnc4ccccc4n3)cc2)CC1,-8%,1.41
O=C(NC[C@H]1CCCN(C(=O)c2cc(-c3ccsc3)[nH]n2)C1)c1cnccn1,-4%,0.81
CCC(CC)(CNC(=O)OC(C)(C)C)NCc1n[nH]cc1C,9%,-1.93
O=C(CN1CC2CC(C1)C1CCCC(=O)N1C2)N1CCC(N2CCCCC2)CC1 (configuration not stated),7%,-1.12
Cn1cc(-c2c(-c3ccccc3)ncn2CCCN(CCO)CCO)cn1,-4%,0.76
Cc1cc(N2CCC(NCCc3cn[nH]c3)CC2)nc(N2CCCCC2)n1,11%,-2.41
O=C(c1cc2cc(Cl)ccc2[nH]1)N1C2CCC1CC(O)(Cc1ccc(F)cc1F)C2 (configuration not stated),-9%,1.52

SMILES,% Inhibition,Z score
Cc1cnn(C[C@H]2CN(C(=O)NCc3cn4c(n3)CCCC4)CCO2)c1,4%,-0.91
COc1ccc(CNC(=O)[C@@H]2CCCN2C2CCN(CC(F)(F)F)CC2)cn1,0%,0.01
NC(=O)c1ccc(-c2nc3c(c(NCCN4CCOCC4)n2)CCNC3)cc1,2%,-0.44
C[C@@H]1Oc2c(cccc2C(=O)NC2(c3nccs3)CCCC2)NC1=O,-5%,1.12
CCc1cc2c(Nc3ccc4[nH]nc(C(N)=O)c4c3)ncnc2s1,-17%,3.31
CS(=O)(=O)C[C@@H](O)CNc1ncnc2sccc12,2%,-0.3
C[C@@H](CN1CCc2ccccc2C1)NC1CCN(c2cc(C#N)ccn2)CC1,5%,-0.77
Cc1cccc(N2CCN(CC[C@H](C)NCc3csc(-c4ncccn4)n3)CC2)c1,-12%,2.19
CCN1CC[C@H](CNCc2csc(-c3ccsc3)n2)C1,4%,-0.73
OC1(Cn2ccnc2)CCN(Cc2ccnc3ccccc23)CC1,-5%,0.98
CC(C)(O)C#Cc1ccc(C(=O)NC[C@H]2CC(=O)N(C3CC3)C2)o1,0%,0.05
C[C@]1(c2ccc(Cl)cn2)Oc2cccc(C3CCN(Cc4nc5ccc(C(=O)O)cc5n4C[C@@H]4CCO4)CC3)c2O1.NC(CO)(CO)CO [LOTIGLIPRON TROMETHAMINE],-2%,0.37
Cc1ccc2nc(-c3cccc(NC(=O)c4ccc(OC(F)(F)F)c(Cl)c4)c3)[nH]c2n1,57%,-12.27
CCN(C(=O)CN[C@](C)(CNC(=O)OC(C)(C)C)CC(C)C)C1CC1,8%,-1.73
O=C(O)CC1(NC(=O)CCn2cnnc2)CCCCC1,-13%,2.31
CCOc1cccc(C2CC2Nc2cc(-n3ccnc3)ncn2)c1 (configuration not stated),7%,-1.31
CNC(=O)c1cc2cc(N[C@H]3CCN(C4CCOCC4)C3=O)ccc2[nH]1,-8%,1.64
CN(Cc1ccccc1)c1nc(-c2c[nH]c3ccccc23)cs1,5%,-0.96
C(=Cc1nc2ccccc2o1)c1ccc(OCCN2CCCC2)cc1,6%,-0.87
c1cnc(NC2COCC2N2CCCC2)c(-c2ncon2)c1 (configuration not stated),2%,-0.42
O[C@H]1CCN(c2ccnc(NCC3(c4ccc(F)cc4)CCCC3)n2)C1,4%,-0.64

SMILES,% Inhibition,Z score
COCCN1CCN(c2cc(Oc3cccc(F)c3)ncn2)CC1,10%,-1.76
CN(C)c1cccc(Oc2ccc(C#N)cc2)c1,-7%,1.37
CN(C)C1CCN(C(C)(C)CNCc2cccc3[nH]ncc23)CC1,-2%,0.34
COc1cc(OC)c2nc(NC[C@@H](c3cccnc3)N3CCCCC3)cc(C)c2c1,-3%,0.38
N#Cc1ccccc1N1CCN(C2CCN(c3ccc(F)c(F)c3)CC2)CC1,-4%,0.64
COCc1cc(CNC(=O)N2CCC[C@H](Cc3nc4ccccc4[nH]3)C2)[nH]n1,-2%,0.38
CCCCC[C@@H]1NC(=O)N(c2nnn(Cc3noc(C)n3)c2C)C1=O,-3%,0.69
Cc1cc(NC(=O)c2cc(-c3cccnc3)on2)cc(N2CCN(C)CC2)c1,-9%,1.62
Cc1ccnc(Nc2cc(N3CCN(C(=O)[C@@H]4CCC(=O)N4)CC3)nc(C)n2)c1,-4%,0.77
O=C(NC1(CN2CCCCC2)CCCCC1)N1CCN(c2ccncc2)CC1,2%,-0.27
c1csc(CCNc2ncnc3c2CCN([C@H]2CCCNC2)CC3)c1,-4%,0.75
CN(Cc1cc(-c2ccncc2)no1)C(=O)N[C@H]1CCCN(C2CCCC2)C1,0%,-0.08
CN1CCC2(CC1)CN(Cc1cccc3cnccc13)CCCN2C,-7%,1.25
COC1CCN(CCNc2cncc(OCC(C)C)n2)CC1,-6%,1.27
Cc1oc2ccccc2c1CNC(=O)N[C@H]1CCCCNC1=O,2%,-0.36
Cc1nc(CNC(=O)N2CC(Oc3ccc(F)cc3)C2)nc2c1CCCC2,-12%,2.01
CN1C[C@@H](Nc2nc(N)nc3c2CCCC3)[C@H](c2cncn2C)C1,9%,-1.29
O=C(OC1CCN(c2nccs2)C1)N1CCC(n2cc(C3CC3)nn2)C1 (configuration not stated),8%,-1.4

# — ChEMBL document CHEMBL5308541, “MAIP: An Open-Source Tool to Enrich High-Throughput Screening Output and Identify Novel, Druglike Molecules with Antimalarial Activity” (ACS Med Chem Lett, 2023)
